Measured values from patent US20040034006A1, “Method of inactivating viral particles in a blood product” (priority 2000, published 2004).

Columns and labels:
red blood cells (RBCC) = conditions: 25 uM
Source text: (§1) Similarly, there was no difference during storage of glucose consumption, lactate production, 2,3-DPG content and pH between the control and treated RBCC (data not shown). White blood cells have found to be highly effected by the present photodynamic treatment.

White blood cells = tested on: White blood cells
Source text: as §1

C[n+]1ccc(-c2c3nc(c(-c4cc[n+](C)cc4)c4ccc([nH]4)c(-c4cc[n+](C)cc4)c4nc(c(-c5ccccc5)c5ccc2[nH]5)C=C4)C=C3)cc1.[Cl-].[Cl-].[Cl-] [Sylsens, mono-phenyl-tri-(N-methyl-4-pyridyl)-porphyrin chloride]
2,3-DPG content during storage, treated vs control RBCC (red blood cells (RBCC)): no difference
glucose consumption during storage, treated vs control RBCC (red blood cells (RBCC)): no difference
lactate production during storage, treated vs control RBCC (red blood cells (RBCC)): no difference
pH during storage, treated vs control RBCC (red blood cells (RBCC)): no difference
capability of white blood cells to present antigens (White blood cells): adversely affected
response of white blood cells to allogenic stimulation (White blood cells): strongly reduced
